Measurements reported in PubChem BioAssay AID686978 (National Center for Advancing Translational Sciences (NCATS), 2013).
Out of some 420,000 compounds screened, about 64,000 (15%) were called active. The inconclusive results got no clear call from the source; some entries with a clear call stand among them for comparison. Calls come from the whole dose curve; as a rule, active = well fitted inhibition curve with a large enough effect; inconclusive = small, poorly fitted or top-dose-only effect; inactive = flat fitted curve, though single readings scatter. No potency is given beside an inconclusive call; the fits are too rough.

Assay: qHTS for Inhibitors of human tyrosyl-DNA phosphodiesterase 1 (TDP1): qHTS in cells in absence of CPT; note: nearly all actives have a fitted effect of over 55% in size
Settings: DT40 Tdp1-/- hTDP1 cells, no CPT, ATP luminescence, 48 h; activity change, negative = growth inhibition: at 46.2 µM (top of the series) unless noted
How it was run: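 Readout: luminescence from CellTiter-Glo after 30 min in the dark at RT. Cells: DT40 Tdp1-/- with stable hTDP1, 400/well. Exposure: compounds alone, ≥48 hr, 37 °C.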
% is set by controls: 0 for no effect and ±100 for the full control effect; potency is the fitted concentration of half-maximal effect; tags give direction and shape of the fitted curve.

SMILES | Potency | activity change, negative = growth inhibition
Cc1c(C(C)NC(=O)c2cc(COc3cccc4cnccc34)on2)cnn1C (stereo not given) | active: 13 µM | 
COc1cc(C(=O)NC2CCCC(C)C2C)ccc1OCC(=O)N1CCOCC1 (stereo not given) | inactive | 
CCOC(=O)C1(CCCc2ccccc2)CCN(Cc2ccn[nH]2)CC1 | inconclusive [inhibitor, single point] | 
O=C(c1ccc(Cl)cc1)C(Cn1cncn1)C(Sc1ccccc1)c1ccccc1 (stereo not given) | inconclusive [inhibitor, single point] | 
COc1ccc(-n2cnc3scc(-c4ccc(OC)c(OC)c4)c3c2=O)cc1 | inconclusive [inhibitor, single point] | 
N#CNC(=Nc1ccc(Cl)cc1)Oc1ccccc1 | inconclusive [inhibitor, partial curve] | 
C=C(NC(=O)C(=C)NC(=O)c1csc(C2=NC3c4csc(n4)C4NC(=O)c5csc(n5)C(C(C)(O)C(C)O)NC(=O)C5CSC(=N5)C(=CC)NC(=O)C(C(C)O)NC(=O)c5csc(n5)C3(CC2)NC(=O)C(C)NC(=O)C(=C)NC(=O)C(C)NC(=O)C(C(C)CC)NC2C=Cc3c(C(C)O)cc(nc3C2O)C(=O)OC4C)n1)C(N)=O (stereo not given) | active: 5.17 µM | 
CCCCOC(=O)c1ccc(NC(=S)NC(=O)c2c(Cl)cnn2CC)cc1 | inconclusive [inhibitor, partial curve, poor fit] | 
O=[N+]([O-])c1ccc(/C=N/NC(=S)Nc2ccccc2F)o1 | inconclusive [inhibitor, partial curve] | 
CCCOc1ccc(CNC(=O)c2cc3ccccn3n2)cc1 | inconclusive [inhibitor, single point] | 
CCOc1cc(/C=C/c2nc3ccccc3s2)ccc1OCC(=O)N1CCOCC1 | active: 20.6 µM | 
COc1ccc(-c2cc3nc(C)n(N)c(=O)c3s2)cc1 | active: 5.8 µM | 
Cc1cccc(NC(=O)c2ccc(S(=O)(=O)N3CCCCCC3)cc2)n1 | active: 13 µM | 
CCOC(=O)c1c(-c2ccccc2)csc1NC(=O)c1cc2ccccc2oc1=O | active: 16.4 µM | 
CC(C)CCOc1ccc(CO[C@@H]2[C@H]3OC(C)(C)O[C@H]3O[C@@H]2C(O)CO)cc1 (stereo not given in full) | inconclusive [inhibitor, single point] | 
C[C@H]1C(=O)N(C)CCN1Cc1cn(C)nc1-c1ccc(Oc2ccccc2)cc1 | inconclusive [inhibitor, single point] | 
CCn1c(=S)sc2c(=O)n(CC(=O)Nc3ccc(Cl)cc3)c(C)nc21 | inactive | 
CCc1cccc(NC(=O)CCNS(=O)(=O)c2ccc3c(c2)CCN3C(C)=O)c1 | inactive | 
CC1(C)CCC[C@]2(C)C(CS(=O)c3ccccc3)=C(C=O)CC[C@@H]12 (stereo not given in full) | active: 20.6 µM | 
CC1(C(=O)NCc2ccc(F)c(F)c2)Cc2c(-c3ccccc3)ccnc2O1 (stereo not given) | active: 6.51 µM | 
C/C(=C\C(=O)c1ccccc1)Nc1ccc(O)cc1 | inconclusive [inhibitor, partial curve] | 
O=C(CCNC(=O)c1ccccc1Cl)Nc1cc(C(F)(F)F)ccc1N1CCCC1 | inactive | 
COc1ccc(N2CCN(CCCNC(=O)c3ccc4nc(N5CCCCC5)sc4c3)CC2)cc1 | inconclusive [inhibitor, single point] | 
Cc1ccc(S(=O)(=O)N2CCN(c3ccc([N+](=O)[O-])c(Sc4nncn4C)c3)CC2)cc1 | inconclusive [inhibitor, single point] | 

SMILES | Potency | activity change, negative = growth inhibition
Cc1ccc(/C=C/c2onc(C)c2S(=O)(=O)N2CCC(C(=O)N(CCC(C)C)Cc3ccco3)CC2)cc1 | active: 16.4 µM | 
CC1(C)CC(N2CCN(c3ccccc3)CC2)=CC(=[N+]2CCCC2)C1 | active: 0.231 µM | 
C=C(C)CNC(=S)N/N=C(\C)c1ccc(Cl)s1 | active: 16.4 µM | 
Cc1cc2[nH]ncc2cc1NC(=S)NC(=O)c1ccccc1 | active: 18.4 µM | 
Cc1cc(C(=O)COc2ccccc2C#N)c(C)n1C1CC1 | inconclusive [inhibitor, partial curve] | 
CCOC(=O)CSc1nc2cc3c(cc2c(=O)n1CCCCCC(=O)NCc1ccc(OC)cc1)OCO3 | inconclusive [inhibitor, partial curve] | 
Cc1ccc(CNC(=O)c2ccc(CS(=O)(=O)c3ccccc3C)o2)cc1 | inconclusive [inhibitor, single point] | 
CCOc1ccc(CN(C)CC(=O)Nc2ccc([N+](=O)[O-])cc2Cl)cc1 | active: 18.4 µM | 
CCOCCN1CCN(c2c3c(nc4cc(-c5ccc(F)cc5)nn24)CCC3)CC1 | active: 16.4 µM | 
C=CCc1ccccc1OCCNCc1ccccc1 | active: 16.4 µM | 
CCOc1ccc(NC(=O)c2oc3ccccc3c2NC(=O)c2cc3ccccc3o2)cc1 |  | inconclusive: -38.7% [inhibitor]
Cc1ccc(C(=O)c2cnc3ccccc3c2-c2ccccc2)cc1 | active: 23.1 µM | 
CCn1c(SCC(=O)Nc2ccc(C(C)=O)cc2)nc2nc3c(cc2c1=O)COC(C)(C)C3 | inactive | 
COc1ccc(CNS(=O)(=O)c2ccc(-n3cccn3)cc2)cc1 | inconclusive [inhibitor, single point] | 
Nn1c(SCC(=O)Nc2ccc3c(c2)OCO3)nnc1-c1cccc(Cl)c1 | inactive | 
Cn1cc(CN2CCC(C(=O)N3CCCC3)CC2)c(-c2ccccc2F)n1 | inactive | 
CN1C2CCC1/C(=C\c1ccc(F)cc1)C(=O)/C2=C/c1ccc(F)cc1 | active: 16.4 µM | 
CCCOC(=O)Nc1sc2c(c1C(=O)OCC)CCC2 | inactive | 
O=C(NCc1cccc(Br)c1)C1CC(c2ccccc2[N+](=O)[O-])=NO1 (stereo not given) | inconclusive [inhibitor, single point] | 
Cc1nn(-c2ccc(Cl)cc2)c2sc(C(=O)N3CCN(c4ccccn4)CC3)cc12 | inconclusive [inhibitor, single point] | 
CCOc1cc(NC2CS(=O)(=O)CC2O)c(OCC)cc1NC(=O)c1ccccc1 (stereo not given) | inconclusive [inhibitor, single point] | 
O=C(CN1CCOCC1)N1CCCc2c1c(=O)oc1ccc(OCc3ccccc3)cc21 | inconclusive [inhibitor, partial curve] | 
C=CCSc1nnc(NC(=O)c2ccc(S(=O)(=O)NCC3CCCO3)cc2)s1 (stereo not given) |  | inconclusive: -33.3% [inhibitor]
CN(Cc1ccccc1)Cc1ccccc1C(O)c1ccccc1 (stereo not given) | inconclusive [inhibitor, single point] | 

SMILES | Potency | activity change, negative = growth inhibition
CCCCn1c(N)c(NCCC(C)C)c(=O)[nH]c1=O | inconclusive [inhibitor, single point] | 
Nc1ccc(O)cc1C(=O)OCC(=O)c1ccc(C2CCCCC2)cc1 | active: 20.6 µM | 
CCCOc1ccc(CSc2n[nH]c(C)n2)cc1 | inconclusive [inhibitor, partial curve, poor fit] | 
Cc1ccc(NC(=O)CSc2nc3nc(C)c(Br)cc3[nH]2)cc1F | inconclusive [inhibitor, single point] | 
COc1ccccc1CNC(=O)CCC1N=C2c3ccccc3N=C(SCC(=O)NCC3CCCO3)N2C1=O (stereo not given) | inactive | 
O=C(CCS(=O)(=O)c1ccccc1)Nc1ccc(S(=O)(=O)Nc2ncccn2)cc1 | inactive | 
CN(CC(=O)Nc1ccc(S(=O)(=O)N2CCOCC2)cc1)Cc1ccc(F)cc1 |  | inconclusive: -33.6% [inhibitor]
CCCCOc1ccc(C(=O)N/C(=C/C=C/c2ccccc2)C(=O)N2CCOCC2)cc1 | inconclusive [inhibitor, single point] | 
CCNC(=O)C(=O)Nc1ccc2c(c1)N(S(=O)(=O)c1cccs1)CCC2 | inconclusive [inhibitor, single point] | 
O=C(c1ccc(S(=O)(=O)Nc2cccc(C(F)(F)F)c2)cc1)N1CCC1 | inconclusive [inhibitor, single point] | 
CC(C)(C)c1ccc(-c2nnc(-c3ccccc3NC(=O)c3ccc(F)cc3F)o2)cc1 | inconclusive [inhibitor, partial curve] | 
Cc1cc(NC(=S)N(CCN2CCCCC2)Cc2ccco2)ccc1Cl | inconclusive [inhibitor, single point] | 
O=C(CC(Sc1ccc(Br)cc1)C(=O)O)c1ccc(F)cc1 (stereo not given) | active: 4.61 µM | 
CCc1cc(=O)oc2cc(C)cc(OC(C)C(=O)NCC(O)c3ccccc3)c12 (stereo not given) | inconclusive [inhibitor, single point] | 
CCOC(=O)c1cnn(-c2ccc(C(C)C)cc2)c1NC(=O)C1CCC1 | inconclusive [inhibitor, single point] | 
COC(=O)c1ccc2nc(-c3ccc(Cl)cc3)c(Cc3ccsc3)n2c1 | active: 11.6 µM | 
CCC(C(=O)Nc1ccc2c(c1)OCCO2)n1c(=O)[nH]c2ccccc2c1=O (stereo not given) | inactive | 
COc1ccc(NS(=O)(=O)c2cc(NC(=O)c3cccc(OCc4c(C)noc4C)c3)ccc2OC)cc1 | active: 23.1 µM | 
CC(C)CNC(=O)c1cccc2c(-c3cccc(C(N)=O)c3)coc12 | inconclusive [inhibitor, single point] | 
COc1ccc(NC(=O)NCCCN2CCC(Cc3ccccc3)CC2)cc1 | inconclusive [inhibitor, single point] | 
c1ccc(OCc2nn3c(Cn4nnc5ccccc54)nnc3s2)cc1 | active: 20.6 µM | 
CCNC(=O)C1(C)CCN(C(=O)c2ccccc2)C1 (stereo not given) | inactive | 
